Some of the results follow. These are noisy estimates, calculated here from bound and input reads.

This note sets out measurements from the BET-seq Pho4 binding data (Le et al. 2018).

For the test, the target named is T1, Pho4 (S. cerevisiae) (UniProt P07270).
T1 sequence: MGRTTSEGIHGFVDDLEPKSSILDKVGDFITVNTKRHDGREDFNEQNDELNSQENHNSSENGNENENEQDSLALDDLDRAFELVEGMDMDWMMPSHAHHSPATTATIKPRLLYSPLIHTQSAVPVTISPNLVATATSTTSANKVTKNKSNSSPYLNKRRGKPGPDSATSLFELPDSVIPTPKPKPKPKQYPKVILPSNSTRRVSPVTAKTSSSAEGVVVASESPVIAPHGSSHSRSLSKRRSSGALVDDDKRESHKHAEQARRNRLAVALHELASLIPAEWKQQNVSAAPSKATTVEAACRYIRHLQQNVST
Kind of test: relative binding free energy (BET-seq); higher = weaker binding. To be noted: reference: library average.
Regarding GATGTCACGTGTCCGG, the “relative binding free energy” value worked out at 0.18 kcal/mol.
As for GACTTCACGTGGGGCT, the figure is 0.38 kcal/mol.
Take GTTTACACGTGAGGTA: the “relative binding free energy” value amounted to 0.38 kcal/mol.
For GTTTGCACGTGTACGT, the “relative binding free energy” value amounted to 0.13 kcal/mol.
As for GTTTGCACGTGGCTCG, the “relative binding free energy” value is 0.05 kcal/mol.
The result for TTTACCACGTGGTGAT reads -0.04 kcal/mol; that for ATGAGCACGTGGGCGG, -0.27 kcal/mol.
The result for AGGGTCACGTGCGTGA reads 0.08 kcal/mol; that for GAGGGCACGTGCGCGT, -0.28 kcal/mol.
Take GGCTTCACGTGGAGAG: the “relative binding free energy” value came out at 0.26 kcal/mol.
For the sequence TAGGGCACGTGTACTA, the “relative binding free energy” value is -0.15 kcal/mol.
The result for TGGTGCACGTGTTCAT reads 0.02 kcal/mol.
In the case of GTGGACACGTGGTGTT, the “relative binding free energy” value came out at 0.02 kcal/mol.
Consider GGTTACACGTGAGAGG, for which the “relative binding free energy” value was 0.39 kcal/mol.
For TCGGGCACGTGTGTCG, the “relative binding free energy” value was -0.01 kcal/mol.
The result for TTGGGCACGTGTCATC reads 0.11 kcal/mol.
Consider TAGTGCACGTGAAGGC, for which the “relative binding free energy” value turned out to be 0.17 kcal/mol.
Take ATTATCACGTGATGGT: the “relative binding free energy” value is 0.22 kcal/mol.
The result for GGAGTCACGTGGCCGG reads 0.06 kcal/mol; that for ACGTTCACGTGAGGGA, 0.3 kcal/mol.
As to TGCCTCACGTGTATGT, the “relative binding free energy” value is 0.24 kcal/mol.
As for ATGGGCACGTGTGGGT, the “relative binding free energy” value was 0.05 kcal/mol.
As for GCTCTCACGTGAGTGG, the figure is 0.4 kcal/mol; as for CTAGACACGTGTGGTG, 0.1 kcal/mol.
As for GTAAGCACGTGAATGG, the figure is 0.25 kcal/mol; as for AGGGTCACGTGTGTTT, 0.16 kcal/mol; as for ATGAGCACGTGGTTGA, -0.07 kcal/mol.
TTTGACACGTGCTGTA: the “relative binding free energy” value was -0.09 kcal/mol.
As for GGAGTCACGTGAAGTA, the figure is 0.47 kcal/mol.
As for GGTGGCACGTGACGCG, the figure is 0.03 kcal/mol.
TGGGTCACGTGATCAT: the “relative binding free energy” value is 0.19 kcal/mol.
As for TATTTCACGTGATGTC, the figure is 0.35 kcal/mol; as for TGGCGCACGTGGAGAT, -0.1 kcal/mol; as for GAAGTCACGTGGGGAA, 0.15 kcal/mol.
As for TGGGACACGTGTGATG, the figure is 0.2 kcal/mol; as for TAAGTCACGTGGGGTG, -0.01 kcal/mol.
The result for TAGGCCACGTGGTGGT reads -0.15 kcal/mol.
CATTTCACGTGGTGTG: the “relative binding free energy” value is 0.19 kcal/mol.
With TCCGTCACGTGGTGAG, the “relative binding free energy” value came to 0.06 kcal/mol.
Regarding TTCGTCACGTGTGTGG, the “relative binding free energy” value stood at 0.09 kcal/mol.
Turning to GGTTACACGTGATCGT, the “relative binding free energy” value was determined as 0.17 kcal/mol.
The result for TAGCTCACGTGTGTTG reads 0.21 kcal/mol; that for GTAGGCACGTGTAGAA, -0.02 kcal/mol.
As for GTGTTCACGTGTTGCT, the figure is 0.24 kcal/mol.
GGCGTCACGTGCGGTA: the “relative binding free energy” value worked out at 0.07 kcal/mol.
The result for CAGTTCACGTGGGTTT reads 0.29 kcal/mol.
As for TGTAGCACGTGACTTG, the figure is 0 kcal/mol; as for ATTGGCACGTGCTTAG, -0.34 kcal/mol; as for TTTGACACGTGTACGG, 0.02 kcal/mol.
TAAGTCACGTGCGGAG: the “relative binding free energy” value stood at 0.09 kcal/mol.
As for AGCGTCACGTGTAATT, the figure is 0.12 kcal/mol; as for TTTCGCACGTGTTGAG, -0.11 kcal/mol; as for TAATGCACGTGGGCGA, -0.13 kcal/mol.
The result for GGTTCCACGTGGGGCA reads 0.05 kcal/mol; that for TTAATCACGTGGATGA, 0.32 kcal/mol.
Take GTAGGCACGTGTGCTG: the “relative binding free energy” value is -0.07 kcal/mol.
As for GTGACCACGTGGGGGC, the figure is -0.14 kcal/mol; as for AGGATCACGTGAGGAT, 0.21 kcal/mol.
The result for GTGAACACGTGATTTG reads 0.01 kcal/mol; that for CGTTACACGTGGTGCG, -0.12 kcal/mol; that for CAGGTCACGTGGGTCA, 0 kcal/mol.
As to GCGTTCACGTGAGTAT, the “relative binding free energy” value was determined as 0.45 kcal/mol.
The result for CGGCTCACGTGTGGCG reads 0.39 kcal/mol.
GGTGTCACGTGTCGTT: the “relative binding free energy” value was 0.19 kcal/mol.
Consider GGATCCACGTGTTGGG, for which the “relative binding free energy” value is 0.01 kcal/mol.
As to GAAGGCACGTGTTGTA, the “relative binding free energy” value was -0.02 kcal/mol.
As for CGTTACACGTGGAGAT, the figure is 0.3 kcal/mol; as for TGTGTCACGTGTGGAC, 0.1 kcal/mol; as for TTGGGCACGTGCCAGG, -0.17 kcal/mol.
As to CGCGTCACGTGGTATT, the “relative binding free energy” value was determined as 0.09 kcal/mol.
The result for GGCGGCACGTGTGGTA reads -0.04 kcal/mol.
The result for GGTATCACGTGCGTAT reads 0.19 kcal/mol; that for TTGTTCACGTGGCCTA, 0.17 kcal/mol.
As for TAGATCACGTGGTTTA, the figure is 0.12 kcal/mol; as for TCGTTCACGTGTGAAT, 0.33 kcal/mol; as for TGGCACACGTGGGTTT, 0 kcal/mol.
For the sequence CAGGGCACGTGTAGTT, the “relative binding free energy” value was -0.09 kcal/mol.
With GTAAACACGTGTGAGG, the “relative binding free energy” value was found to be 0.18 kcal/mol.
As for GAGGCCACGTGCGGGT, the “relative binding free energy” value is -0.01 kcal/mol.
TTTATCACGTGGCGGA: the “relative binding free energy” value is 0.08 kcal/mol.
The result for GTGATCACGTGTGGTC reads 0.29 kcal/mol; that for TTAGGCACGTGAAGCT, 0 kcal/mol.
As for TGGTGCACGTGTCTTA, the figure is -0.11 kcal/mol.
The result for AATAGCACGTGAGGGG reads 0.27 kcal/mol; that for TATTTCACGTGACATT, 0.27 kcal/mol.
With TATTACACGTGGCGTA, the “relative binding free energy” value was 0.01 kcal/mol.
As for TGGTGCACGTGCAAAT, the figure is 0.02 kcal/mol.
As to CGAGGCACGTGATGTA, the “relative binding free energy” value is -0.04 kcal/mol.
The result for CTATACACGTGTAAGG reads 0.23 kcal/mol.
In the case of TTTTGCACGTGTGGGC, the “relative binding free energy” value worked out at 0.09 kcal/mol.
The result for GGTTTCACGTGGGCAT reads 0.06 kcal/mol; that for TTTAACACGTGCTGGC, 0.08 kcal/mol; that for CGTGGCACGTGTGTGC, -0.1 kcal/mol.
With CGTAGCACGTGGGCTT, the “relative binding free energy” value was -0.12 kcal/mol.
With GTGTACACGTGTTCAG, the “relative binding free energy” value was determined as 0.14 kcal/mol.
As for TTTGTCACGTGGTTTT, the figure is 0.11 kcal/mol.
With GCTTGCACGTGGGGAT, the “relative binding free energy” value was -0.17 kcal/mol.
As for TTTGGCACGTGTGGCT, the figure is 0.11 kcal/mol; as for AAGTTCACGTGGATCT, 0.37 kcal/mol; as for GTTAGCACGTGGCGTG, -0.17 kcal/mol.
As for TTCTGCACGTGGTGGG, the figure is 0.01 kcal/mol; as for CTTTGCACGTGCTGTG, -0.06 kcal/mol; as for TGGTACACGTGCTGTG, 0.06 kcal/mol.
As for GGTGACACGTGTTACT, the figure is 0.15 kcal/mol.
As to GATTTCACGTGGATAA, the “relative binding free energy” value was 0.32 kcal/mol.
The result for GTGTGCACGTGTTGAG reads 0.02 kcal/mol; that for AGGGGCACGTGGTGGC, -0.13 kcal/mol; that for ATTGCCACGTGATTGG, 0.2 kcal/mol.
ATTACCACGTGTTGAG: the “relative binding free energy” value was determined as 0.08 kcal/mol.
The result for TTGCACACGTGTGATG reads 0.11 kcal/mol; that for TATGACACGTGGACTG, 0.06 kcal/mol; that for AGGTTCACGTGGCGCT, 0.23 kcal/mol.
As for AAAGTCACGTGTAGTA, the figure is 0.04 kcal/mol; as for GCGAGCACGTGGATGG, -0.1 kcal/mol.
As for CATGCCACGTGTTGTT, the “relative binding free energy” value was -0.07 kcal/mol.
